# The supplement of paper PMC3334620
# The full ranking holds about 33,000 sequences; the median of “E-score (-0.5 to 0.5)” is about -0.036, and the highest 2% start at about 0.37. Some of the results follow.
# Target: T1, Yer064c (UniProt P40041)
# T1 sequence: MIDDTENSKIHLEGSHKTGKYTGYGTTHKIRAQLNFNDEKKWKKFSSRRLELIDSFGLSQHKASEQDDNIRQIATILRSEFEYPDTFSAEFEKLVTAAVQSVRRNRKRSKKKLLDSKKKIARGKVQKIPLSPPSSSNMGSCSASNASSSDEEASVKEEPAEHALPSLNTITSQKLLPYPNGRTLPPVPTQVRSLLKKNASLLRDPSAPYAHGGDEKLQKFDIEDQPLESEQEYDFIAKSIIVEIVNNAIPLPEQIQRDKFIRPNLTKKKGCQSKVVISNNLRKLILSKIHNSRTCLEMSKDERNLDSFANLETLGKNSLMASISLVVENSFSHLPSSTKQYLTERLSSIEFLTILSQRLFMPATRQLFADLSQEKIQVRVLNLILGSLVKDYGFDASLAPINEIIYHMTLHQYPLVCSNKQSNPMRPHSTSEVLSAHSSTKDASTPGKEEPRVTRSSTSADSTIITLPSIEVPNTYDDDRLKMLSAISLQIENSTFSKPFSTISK
# Assay: PBM E-score (8-mer binding enrichment) (E-score (-0.5 to 0.5)); higher = stronger / more preferred TF binding; most listed sequences are background and not binding sites
# Conditions: protein concentration: 200 nM; construct: GST-full length
# In short: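 Universal all-10-mer Agilent arrays, double-stranded by primer extension on fresh or once-stripped slides, were probed with about 100-200 nM GST-tagged yeast transcription factors made by PURExpress. Fluorescent anti-GST detected bound protein, and masliner normalised the scans. E-scores from the Universal PBM Analysis Suite were given to each ungapped eight-base word pooled with its reverse complement.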
row,Sequence,PBM E-score
1,CAAGACAG,-0.164
2,AGACGGTG,-0.288
3,CAGCAATG,-0.0128
4,CTACCTTC,-0.105
5,ACGAGTTC,0.114
6,CCCAGCGA,-0.0081
7,ACACAGAT,-0.0473
8,GGCCAACA,-0.0641
9,CAATCGAC,0.0905
10,ACGAGAGT,0.151
11,AGGTTTCC,-0.0971
12,GTTATTTA,-0.027
13,AGCTTAGC,-0.144
14,AAAGCTGA,0.0846
15,ATGAATAG,0.182
16,CTCCTCCA,-0.0193
17,AGAGGAAC,-0.189
18,CCCTTAGG,-0.17
19,GTGAAAAA,0.00448
20,AGCGTTAG,-0.0809
21,ATGAACAG,-0.0393
22,ACTGACAG,-0.0319
23,CAGGCGTC,-0.249
24,CCATAATC,0.239
25,AGGCTGAC,0.327

row,Sequence,PBM E-score
1,AAGCTAGC,-0.173
2,ATGCCGTG,0.0709
3,CAGAGAAG,0.0121
4,GGAATAGA,0.101
5,AAGGGTAT,-0.142
6,GAAGTTGA,0.0724
7,CGACCGAA,-0.164
8,AGATCTAA,-0.0235
9,AGAGTGCG,-0.148
10,GCCCGTAA,-0.0447
11,CGCCACTA,-0.113
12,CGGAGACG,-0.0897
13,CGAACTGA,-0.0335
14,TCCACAGA,0.153
15,GAACTCCA,0.0732
16,CGCCTAAG,-0.00592
17,ATCGTGCG,0.0944
18,CCAAGTCG,0.0788
19,GCAGATAA,0.164
20,AATTATGA,0.248
21,AGCTTACG,-0.0515
22,CCCACCTC,-0.257
23,GAGACAGC,0.136
24,GCCGCTGA,0.0647
25,AATGCTGA,-0.0228

row,Sequence,PBM E-score
1,GTATAAGA,0.0331
2,GACCCTCA,-0.065
3,ATATACGC,-0.0842
4,CGAAGTCC,0.0182
5,TGCCCGCA,-0.0949
6,ATTCTCTG,0.0149
7,CGCCTCCG,-0.123
8,AGTTATCA,-0.00043
9,GAGCTATA,-0.192
10,AGAACTAT,0.0551
11,TGTATCAA,0.187
12,ACCCGAGC,-0.191
13,GCCAGACA,-0.21
14,AGTGCTGG,-0.151
15,CTACTGAC,0.177
16,ATACCGGG,-0.0398
17,GGTGTCAC,0.0497
18,ACAAACTG,-0.157
19,AGGCGAGG,-0.241
20,CGGGAAGA,0.0454
21,ATGTTATC,0.051
22,AAAAACAG,0.064
23,AGGCAAAT,-0.185
24,GACTTGCA,0.241
25,AGCAATAA,0.042

row,Sequence,PBM E-score
1,TCGACCCA,0.0521
2,ATGCATGC,-0.0443
3,AACGGAAC,-0.134
4,AGATCGCT,-0.19
5,ATTCAAAT,0.214
6,CTCGCTAA,0.111
7,ATTACGGG,0.0135
8,AGTTGTAT,-0.078
9,GCAAGCCA,-0.00578
10,GAATATGC,-0.142
11,TAAGATCA,0.21
12,ATTGGCAC,0.0418
13,GATACGGA,0.046
14,CTACGGAC,-0.15
15,GAGCGTTA,-0.0636
16,AGACACCA,0.153
17,AGAGTACA,0.171
18,CCTGTTGA,0.1
19,ACCCCGCA,-0.254
20,ACCTGCTC,-0.261
21,AGCTGGCG,-0.154
22,CCCCACTC,-0.156
23,TAGAGTGA,0.171
24,CATGTAAC,-0.097
25,AGACTAAT,0.389

row,Sequence,PBM E-score
1,ACCAGATA,0.0252
2,CACCAATA,-0.0657
3,GAGCCGTA,0.22
4,GCAATTCA,-0.101
5,CGCACGTC,-0.277
6,CATTTGGG,-0.193
7,AAGTCTAT,0.0155
8,CAAAGGAA,-0.117
9,AGGTATCG,-0.0675
10,CGCTATTA,-0.133
11,CTGGGGTC,-0.0281
12,GACATCTC,-0.139
13,AAGAGGTA,-0.128
14,TATGCGAA,-0.0756
15,AACGCTTA,-0.183
16,CGTTGTAG,0.0306
17,CTTAGGCA,-0.0418
18,ACCGTCAC,-0.154
19,CTTGGCTA,0.0632
20,CCCAGGAA,-0.148
21,CCACCCTC,0.0436
22,ATTCGAAT,0.216
23,GAAGACGA,0.0461
24,ACGTTGCA,-0.0905
25,ATGCCGAA,-0.0487

row,Sequence,PBM E-score
1,ACTATTTG,0.113
2,AGTGGACG,-0.00071
3,GACCCCGC,-0.341
4,AACCTGTA,-0.0552
5,GTAACTAC,-0.0408
6,AAATCTCT,-0.078
7,CGACAGAC,-0.11
8,CGGAGGCA,-0.261
9,ATTCCGAC,-0.0115
10,CGAAGCCA,0.0935
11,AGGTACAA,0.0966
12,AACCACAA,0.0761
13,GCGCCTTA,-0.26
14,AGCAATTA,0.0476
15,AATGACTG,0.441
16,GGTGAACA,-0.164
17,AACTGAGG,0.0189
18,ACGTTCCA,-0.289
19,ACGCAATC,0.162
20,CCTGGACG,-0.185
21,AACTAGGT,0.0276
22,CTATCAGC,0.0186
23,CCATTGAA,0.077
24,GGATCGTA,-0.118
25,GTCGGCTA,0.0779

row,Sequence,PBM E-score
1,GAGGGATA,-0.246
2,CTAACCCC,-0.237
3,GGATCTAA,-0.00574
4,ATTACGTG,0.0436
5,CGCTTACG,-0.013
6,ACACTCCA,-0.0373
7,AACCAGTC,0.171
8,AGGCGTGG,-0.202
9,CCAAGCAG,-0.0695
10,AACTAGCG,-0.119
11,AATCTGTG,-0.0718
12,CTCATGAC,0.381
13,AGACGGCG,-0.126
14,AGTCTTTA,0.341
15,AGTATCAT,0.133
16,TACGGGCA,-0.0961
17,ATAGATAG,0.0918
18,ACGCACAT,-0.00395
19,CCAAGACA,-0.0421
20,CTCGCGAC,0.0585
21,AGCTGGAA,-0.105
22,CTTGACTA,0.435
